Structures are written as SMILES. In all, about 310,000 compounds went through this assay and about 14,000 (4.5%) showed an effect of 50% or more. Effects have a minus sign here. This is one part of the list.

The results in this text go back to publication PMC4336329 (PLoS ONE, 2015).
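Also: peak tail current of the secondary pulse compared with the same well before compound.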

Chain of human ether-à-go-go-related gene (hERG) potassium channel (Q12809 whole entry, looked up): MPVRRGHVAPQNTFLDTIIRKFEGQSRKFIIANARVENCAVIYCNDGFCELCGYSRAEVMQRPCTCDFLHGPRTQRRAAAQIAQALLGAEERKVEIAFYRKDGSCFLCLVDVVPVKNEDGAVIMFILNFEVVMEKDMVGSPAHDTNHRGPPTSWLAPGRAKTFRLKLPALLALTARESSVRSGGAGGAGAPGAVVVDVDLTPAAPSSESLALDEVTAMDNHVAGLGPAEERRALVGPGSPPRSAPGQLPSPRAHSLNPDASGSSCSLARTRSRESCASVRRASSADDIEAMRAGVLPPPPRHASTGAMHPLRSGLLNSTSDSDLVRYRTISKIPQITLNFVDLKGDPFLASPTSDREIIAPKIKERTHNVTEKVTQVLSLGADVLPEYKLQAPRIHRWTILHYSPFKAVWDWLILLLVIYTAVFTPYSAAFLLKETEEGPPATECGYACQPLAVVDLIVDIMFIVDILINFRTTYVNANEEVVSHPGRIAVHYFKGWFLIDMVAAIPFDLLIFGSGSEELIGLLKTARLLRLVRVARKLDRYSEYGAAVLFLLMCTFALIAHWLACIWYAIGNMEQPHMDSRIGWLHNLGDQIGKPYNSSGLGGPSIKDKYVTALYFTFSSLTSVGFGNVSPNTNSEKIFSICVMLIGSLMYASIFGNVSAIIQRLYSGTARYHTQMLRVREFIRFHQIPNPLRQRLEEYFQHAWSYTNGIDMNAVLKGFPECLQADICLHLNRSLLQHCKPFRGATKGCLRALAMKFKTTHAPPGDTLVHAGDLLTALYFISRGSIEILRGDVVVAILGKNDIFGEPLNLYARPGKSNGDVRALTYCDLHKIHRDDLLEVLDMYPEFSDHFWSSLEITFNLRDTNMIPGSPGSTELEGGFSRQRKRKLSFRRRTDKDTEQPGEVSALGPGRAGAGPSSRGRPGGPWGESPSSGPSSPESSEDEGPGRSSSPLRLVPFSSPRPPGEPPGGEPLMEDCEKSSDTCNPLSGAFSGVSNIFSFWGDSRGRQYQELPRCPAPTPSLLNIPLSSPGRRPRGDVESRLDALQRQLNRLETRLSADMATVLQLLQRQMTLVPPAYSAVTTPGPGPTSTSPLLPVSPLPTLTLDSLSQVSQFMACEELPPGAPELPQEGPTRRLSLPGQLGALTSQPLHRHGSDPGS

The assay concerns the target human ether-à-go-go-related gene (hERG) potassium channel (human, UniProt Q12809). Briefly: primary screen, population patch clamp on CHO cells stably expressing hERG.
As to `COc1ccc(CCN2CC(C(=O)N(C)CC(=O)Nc3cccc(F)c3)CC2=O)cc1OC` (stereo not drawn), the “hERG current change (%, negative = inhibition) at 10uM” value is reported as 12.7%.

With `CCNS(=O)(=O)c1ccc(OCCNS(C)(=O)=O)cc1`, the “hERG current change (%, negative = inhibition) at 10uM” value is 2%. In the case of `CNCc1ccc(OCc2ccccc2)c(OC)c1` it was 0.71%.

As to `C=C[C@@]12CN(C)[C@H]3[C@H]1[C@@]1(C(=O)Nc4ccccc41)C1CC2[C@@H]3CO1`, the “hERG current change (%, negative = inhibition) at 10uM” value is 13%.

Regarding `O=C(CCn1[nH]c(=O)c2ccccc2c1=O)NCCO`, the “hERG current change (%, negative = inhibition) at 10uM” value turned out to be 9.55%. In the case of `Cc1ccc(S(=O)(=O)N2CCN(CC(=O)N/N=C/C=C/c3ccccc3)CC2)cc1` it was -73.8%; in that of `C/C(CC(=O)Nc1cccnc1)=N\NC(=O)C(=O)NC(C)C`, 17.6%. In the case of `S=c1[nH]nc(-c2ccco2)n1/N=C/c1ccccc1Cl` it was 14.4%.

Consider `NS(=O)(=O)c1ccc(NC(=O)CCC2CCCCC2)cc1`, for which the “hERG current change (%, negative = inhibition) at 10uM” value is recorded as 5.03%. With `COC(=O)C1CN(C(=O)C(C)Oc2ccc(F)cc2)c2ccccc2O1` (stereo not drawn) the figure was 3.64%; with `Cc1nc(CCNC(=O)CC2C(=O)NCCN2Cc2ccc(F)cc2)sc1C` (stereo not drawn), 12.3%. On to `Cc1cc(C)cc(OCC(=O)NNC(=O)CN2C(=O)c3ccccc3C2=O)c1`, for which the “hERG current change (%, negative = inhibition) at 10uM” value worked out at 9.45%. With `O=C(C1CC(=O)N(c2ccc(F)c(Cl)c2)C1)N1CCC2(CC1)OCCO2` (stereo not drawn) the figure was 0.311%. For `O=C1C2C3C=CC(C3)C2C(=O)N1CCc1ccccc1` (stereo not drawn), the “hERG current change (%, negative = inhibition) at 10uM” value is on record as 6.21%. As for `Cc1ccc(C(=O)C2=C(O)C(=O)N(Cc3cccnc3)C2c2cccc(Oc3ccccc3)c2)o1` (stereo not drawn), the “hERG current change (%, negative = inhibition) at 10uM” value stood at 13%. With `COc1ccc(-n2nc3c(N4CCC(C(=O)NCc5ccco5)CC4)nnc(C)c3c2C)cc1` the figure was 5.12%; with `COCCn1nnnc1C(c1ccccc1)N1CCN(C)CC1.Cl` (stereo not drawn), 8.75%.

Take `Cc1cc(=O)[nH]c2c1c(-c1ccccc1)nn2C`: the “hERG current change (%, negative = inhibition) at 10uM” value is on record as 2.46%. With `Cc1cc(NC(=O)C2CC(c3ccc(Cl)cc3)=NO2)no1` (stereo not drawn) the figure was -4.52%. With `CSc1ccc(S(=O)(=O)N2CCN(Cc3ccc4c(c3)OCO4)CC2)cc1` the figure was -9.34%; with `CC(C)(C)CC(=O)Nc1nnc(SCC(=O)Nc2ccccc2F)s1`, 15.7%. With `Cc1cccc(NC(=O)CC(=O)Nc2cccc(C)c2)c1` the figure was 10.7%. In the case of `CCOC(=O)c1oc2c(CN3CCCCC3C)c(O)ccc2c(=O)c1-c1ccc(OC)c(OC)c1` (stereo not drawn), the “hERG current change (%, negative = inhibition) at 10uM” value was -21.6%.

On to `O=c1[nH]c2cc3c(cc2cc1C(c1nnnn1C1CCCC1)N1CCSCC1)OCCO3` (stereo not drawn), for which the “hERG current change (%, negative = inhibition) at 10uM” value amounted to 13.6%. With `CC(C)=CCc1c(O)cc2oc3c(CC=C(C)C)c(O)c(O)c(CC=C(C)C)c3c(=O)c2c1O` the figure was 8.6%; with `Cc1cccc(NC(=O)CSc2nc3ccccc3nc2N2CC(C)OC(C)C2)c1` (stereo not drawn), -10.2%; with `Cc1cc(NC(=O)CSc2nnc(Nc3ccccc3)s2)no1`, 3.33%. With `CC1CCCC(C(=O)OCc2ccccc2)N1.Cl` (stereo not drawn) the figure was 4.56%.

With `COc1cc(CN2CCNC(=O)C2CC(=O)N(C)CCCN2CCOCC2)cc(OC)c1` (stereo not drawn), the “hERG current change (%, negative = inhibition) at 10uM” value came out at 9.39%. With `CC(c1nnc(SCC(=O)Nc2cccnc2Cl)n1Cc1ccccc1)N(C)C` (stereo not drawn) the figure was 11%; with `Nc1nc(SCC(=O)Nc2ccc([N+](=O)[O-])cc2Br)n[nH]1`, 3.65%.

`Cc1ccc(-n2c(C)c(C)c3c(NCCN(C)C)ncnc32)cc1`: the “hERG current change (%, negative = inhibition) at 10uM” value is on record as -36.3%. As for `COc1cc(C2Nc3ccccc3C(=O)N2c2ccccc2)c(Br)cc1OCC(=O)O` (stereo not drawn), the “hERG current change (%, negative = inhibition) at 10uM” value amounted to 0.108%. In the case of `CN(CC(=O)Nc1ccccc1-c1ccccc1)C1CCCCC1.[O-][Cl+3]([O-])([O-])O` it was -9.45%; in that of `CSCCC(NS(=O)(=O)/C=C/c1ccccc1)C(=O)O` (stereo not drawn), 9.96%; in that of `CCOC(=O)Cc1csc(NC(=O)c2c(O)c3ccccc3n(CCC(C)C)c2=O)n1`, 19%. Take `COc1ccc(S(=O)(=O)NC(CC(=O)NCC2CCCO2)c2ccco2)cc1` (stereo not drawn): the “hERG current change (%, negative = inhibition) at 10uM” value came out at 8.5%.

`COc1ccc(C(CCN(Cc2ccc(OC)c(OC)c2)C(C)=O)C(C)C)cc1` (stereo not drawn): the “hERG current change (%, negative = inhibition) at 10uM” value is on record as -52.3%.

`CCc1nnc(NC(=O)C2CCCN(C(=O)c3ccc(Cl)cc3)C2)s1` (stereo not drawn): the “hERG current change (%, negative = inhibition) at 10uM” value is 6.87%. With `O=C(NCN1C(=O)C2C3C=CC(C3)C2C1=O)Nc1ccccc1O` (stereo not drawn), the “hERG current change (%, negative = inhibition) at 10uM” value is 13.9%. In the case of `COc1ccc(-n2c(CNCCc3ccc(C)cc3)nc3ccccc3c2=O)cc1` it was -32.8%; in that of `CCOC(=O)c1c(C)[nH]c(C(=O)OCC(=O)N2CCN(S(=O)(=O)c3ccc(C)cc3C)CC2)c1C`, -1.48%.
